Data taken from the RNAGym collection of RNA variant scans (doi:10.1101/gad.245936.114).
Variants at the background level are over-represented here.

B1: tRNA (parent)
chain: CUCUCGGUAGCCAAGUUGGUUUAAGGCGCAAGACUUUAAUUUAUCACUACGAAAUCUUGAGAUCGGGCGUUCGACUCGCCCCCGGGAGAUUUUUUCCUCGAGCAA

Variants of: B1
Test: nonsense suppression (GFP-seq) (ratio to wild type); higher = more function; SUP4oc tRNA, yeast GFP reporter sort-seq
Procedure, shortened: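 Yeast were grown in raffinose/galactose medium with 80 mg/L adenine, each strain bearing a genome-integrated ochre-suppressor tRNA variant from a ~3% random-mutation library, a galactose-driven GFP ochre reporter, and RFP. After sorting into GFP/RFP bins, every bin was sequenced on an Illumina platform at phred ≥30. The GFPSEQ value, a measure of nonsense suppression, is the weighted bin median GFP/RFP relative to the unmutated parent tRNA, using each variant's estimated cell share per bin as the weight. Only variants with ≥100 reads and ≥30 cells were included.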

Row | Variant | nonsense suppression
1 | A54U G59C C64A A74G G84U | ≤ 0.026
2 | A54C G78U | ≤ 0.026
3 | U55A G59C | ≤ 0.026
4 | U35G C68A U71G G85U | ≤ 0.026
5 | A54C C68A U71G U76A | ≤ 0.026
6 | A54U A74C | ≤ 0.026
7 | A54G U76G | ≤ 0.026
8 | U35G G65C G85C | ≤ 0.026
9 | A54G A62G | ≤ 0.026
10 | A54G U70A A89G | ≤ 0.026
11 | U35C G78C | ≤ 0.026
12 | U35C G78A | ≤ 0.026
13 | A54U U76G G86A | ≤ 0.026
14 | A54C A74G | 0.0575
15 | A54U G65U | ≤ 0.026
16 | A54C U57A | 0.0382
17 | U35G G59U G86C | ≤ 0.026
18 | A54G G78U G88U A89C | ≤ 0.026
19 | A54U A60C U71G G85U | ≤ 0.026
20 | U35G C56A U57C U58A C81U | ≤ 0.026
21 | U35G C56A G61U U63A | ≤ 0.026
22 | U35G G86C A87U | ≤ 0.026
23 | A54U G61A | 0.611
24 | A54U C82G C83U | ≤ 0.026

Row | Variant | nonsense suppression
25 | U55A C83U | ≤ 0.026
26 | U55A A62U U76G G86C | ≤ 0.026
27 | A54U C72A | ≤ 0.026
28 | A54C U76G A89U | ≤ 0.026
29 | A54C G86C | 0.0725
30 | U35G C56A U57A | ≤ 0.026
31 | A54G C77U C79U G88U | ≤ 0.026
32 | U35G U55A U58A | ≤ 0.026
33 | A54C U55A C80U | ≤ 0.026
34 | A54U G61U U76A | ≤ 0.026
35 | A54C U57A G88A | ≤ 0.026
36 | A54G G73A | 0.122
37 | A54G C79U | 0.0263
38 | U35C G67A C83G | ≤ 0.026
39 | A54C C56G U70C G78C | ≤ 0.026
40 | U35C C83A A87G | ≤ 0.026
41 | A54G C77G | ≤ 0.026
42 | U35G C81U | ≤ 0.026
43 | U55A G88C | ≤ 0.026
44 | U35C A74G | ≤ 0.026
45 | U35C A74U | ≤ 0.026
46 | U55A C80A | ≤ 0.026
47 | U55A G59U U70C | ≤ 0.026
48 | U35G A60C G61C | ≤ 0.026

Row | Variant | nonsense suppression
49 | U55A G78U C83U | ≤ 0.026
50 | A54U U55G | ≤ 0.026
51 | A54U A62G | 0.0321
52 | A54G G66C | ≤ 0.026
53 | U55A C80G C83G | ≤ 0.026
54 | A54U A60C | 0.279
55 | A54U A60U | 0.965
56 | U35G C68G A89G | ≤ 0.026
57 | U55A G73U | ≤ 0.026
58 | U35G U76G C82G G85U | ≤ 0.026
59 | A54C U63A | 0.377
60 | U35G U58A C80G | ≤ 0.026
61 | U35G C81G C83U | ≤ 0.026
62 | A54C A60U G84C | ≤ 0.026
63 | U35C U76A C83U | ≤ 0.026
64 | U35G C68A G69A C75A | ≤ 0.026
65 | A54U A87G | 0.867
66 | A54U A87C | ≤ 0.026
67 | A54G G69U C77G | ≤ 0.026
68 | A54U A62C U70A | ≤ 0.026
69 | A54U C64U | 0.0513
70 | U35G G78A | ≤ 0.026
71 | A54U C64U U71A C72A | ≤ 0.026
72 | A54U G61A C64G | ≤ 0.026

Row | Variant | nonsense suppression
73 | U35G A89C | ≤ 0.026
74 | A54C C81G | ≤ 0.026
75 | A54G C56G G59C U71A | ≤ 0.026
76 | U35G U57G G67A | ≤ 0.026
77 | A54C U76C | 0.232
78 | A54G A89U | ≤ 0.026
79 | U35G A74U | ≤ 0.026
80 | A54U C56G G85U | ≤ 0.026
81 | U35C A62G G84U | ≤ 0.026
82 | A54G U71A | ≤ 0.026
83 | A54G C80U | ≤ 0.026
84 | A54U G69U | ≤ 0.026
85 | U55A A62U C68G G69A | ≤ 0.026
86 | A54C A60U | 1.09
87 | A54C A60G | 0.0773
88 | U35C C68A C81A C83G | ≤ 0.026
89 | A54C G73C | 0.0591
90 | A54G G61A A89U | ≤ 0.026
91 | A54G C64G U71G | ≤ 0.026
92 | U55A A62U | ≤ 0.026
93 | A54U G65C U76A | ≤ 0.026
94 | A54C G84U | 0.0301
95 | U55A G66C G69C | ≤ 0.026
96 | A54C C56A | ≤ 0.026

Row | Variant | nonsense suppression
97 | U35C C77U G86A | ≤ 0.026
98 | U35G G61U | ≤ 0.026
99 | A54C G67U | ≤ 0.026
100 | A54U U70G U76G | ≤ 0.026
101 | A54U A60G U70C | ≤ 0.026
102 | U55A C79A G86A | ≤ 0.026
103 | U35C G66A | ≤ 0.026
104 | U55A C80A G86C | ≤ 0.026
105 | U35C C77A G85C | ≤ 0.026
106 | A54C G59U G65A A74C | ≤ 0.026
107 | A54U C81A | ≤ 0.026
108 | A54C U70G | ≤ 0.026
109 | U35G A60C | ≤ 0.026
110 | U35G A60U | ≤ 0.026
111 | U35G C75G | ≤ 0.026
112 | A54C G69C | ≤ 0.026
113 | A54G U71G G73A | ≤ 0.026
114 | A54C | 1.16
115 | A54G | ≤ 0.026
116 | A54U | 1.04
117 | U35G G66A | ≤ 0.026
118 | U35G G66U | ≤ 0.026
119 | A54G G69C C81G | ≤ 0.026
120 | A54U G85C | 0.208

Row | Variant | nonsense suppression
121 | A54G G69A | ≤ 0.026
122 | A54G C81A C82G | ≤ 0.026
123 | U35C U57C U58G G59A | ≤ 0.026
124 | A54C U55A G65C | ≤ 0.026
125 | A54G G67C U76A | ≤ 0.026
126 | U55A G86U | ≤ 0.026
127 | U55A G86C | ≤ 0.026
128 | A54C C79U G88U | ≤ 0.026
129 | A54C C80U | 0.194
130 | A54U U76C | 1.08
131 | U55A C79G | ≤ 0.026
132 | A54C U63A G66C | ≤ 0.026
133 | A54C U57C G65A U70C A87G | ≤ 0.026
134 | U55A G66A | ≤ 0.026
135 | U55A G66C | ≤ 0.026
136 | A54G U63A | ≤ 0.026
137 | A54G U57A G85U A87C | ≤ 0.026
138 | U55A A89U | ≤ 0.026
139 | U55A A60C G61U C79G | ≤ 0.026
140 | A54C G59C A87G | ≤ 0.026
141 | U35G G78U C80G | ≤ 0.026
142 | A54U G59A | ≤ 0.026
143 | A54G C82G | ≤ 0.026
144 | U35C G73A | ≤ 0.026

Row | Variant | nonsense suppression
145 | U55A G59U G67C G85U | ≤ 0.026
146 | U35A U70C G73U C81U | ≤ 0.026
147 | U35G G69U | ≤ 0.026
148 | U35G G69A | ≤ 0.026
149 | U35G A62G G66C | ≤ 0.026
150 | A54G C64A | ≤ 0.026
151 | U35G U58G G59C G73A | ≤ 0.026
152 | A54G G78C | ≤ 0.026
153 | A54G G78A | ≤ 0.026
154 | U35G C56U U63C | ≤ 0.026
155 | A54U U58G A74C G84C | ≤ 0.026
156 | U55A G67U | ≤ 0.026
157 | U55A G69A C81A G88C | ≤ 0.026
158 | A54U U70C C80G | ≤ 0.026
159 | U35G A54U G66C | ≤ 0.026
160 | U35G U55G | ≤ 0.026
161 | U35C A60C C72A | ≤ 0.026
162 | A54C C56G A60C G66A | ≤ 0.026
163 | U35C C83U | ≤ 0.026
164 | A54U U71A | ≤ 0.026
165 | A54G U58A C64A C72A A89C | ≤ 0.026
166 | U55A A87U | ≤ 0.026
167 | U55A C64A U71C | ≤ 0.026
